# Results reported in PMC4336329 (PLoS ONE, 2015).
# About 2,200 (0.71%) of roughly 310,000 compounds showed an effect of 50% or more. Effects have a minus sign here. Some of the results follow. Where a SMILES comes first, the peptide text is derived from it. [ ]: non-standard residue; d: D form. ξ: configuration not given here. ξF = NC(Cc1ccccc1)C(=O)O
# Target: human ether-à-go-go-related gene (hERG) potassium channel (human, UniProt Q12809)
# Test: primary screen, population patch clamp on CHO cells stably expressing hERG
# Chain of human ether-à-go-go-related gene (hERG) potassium channel (Q12809 whole entry, looked up): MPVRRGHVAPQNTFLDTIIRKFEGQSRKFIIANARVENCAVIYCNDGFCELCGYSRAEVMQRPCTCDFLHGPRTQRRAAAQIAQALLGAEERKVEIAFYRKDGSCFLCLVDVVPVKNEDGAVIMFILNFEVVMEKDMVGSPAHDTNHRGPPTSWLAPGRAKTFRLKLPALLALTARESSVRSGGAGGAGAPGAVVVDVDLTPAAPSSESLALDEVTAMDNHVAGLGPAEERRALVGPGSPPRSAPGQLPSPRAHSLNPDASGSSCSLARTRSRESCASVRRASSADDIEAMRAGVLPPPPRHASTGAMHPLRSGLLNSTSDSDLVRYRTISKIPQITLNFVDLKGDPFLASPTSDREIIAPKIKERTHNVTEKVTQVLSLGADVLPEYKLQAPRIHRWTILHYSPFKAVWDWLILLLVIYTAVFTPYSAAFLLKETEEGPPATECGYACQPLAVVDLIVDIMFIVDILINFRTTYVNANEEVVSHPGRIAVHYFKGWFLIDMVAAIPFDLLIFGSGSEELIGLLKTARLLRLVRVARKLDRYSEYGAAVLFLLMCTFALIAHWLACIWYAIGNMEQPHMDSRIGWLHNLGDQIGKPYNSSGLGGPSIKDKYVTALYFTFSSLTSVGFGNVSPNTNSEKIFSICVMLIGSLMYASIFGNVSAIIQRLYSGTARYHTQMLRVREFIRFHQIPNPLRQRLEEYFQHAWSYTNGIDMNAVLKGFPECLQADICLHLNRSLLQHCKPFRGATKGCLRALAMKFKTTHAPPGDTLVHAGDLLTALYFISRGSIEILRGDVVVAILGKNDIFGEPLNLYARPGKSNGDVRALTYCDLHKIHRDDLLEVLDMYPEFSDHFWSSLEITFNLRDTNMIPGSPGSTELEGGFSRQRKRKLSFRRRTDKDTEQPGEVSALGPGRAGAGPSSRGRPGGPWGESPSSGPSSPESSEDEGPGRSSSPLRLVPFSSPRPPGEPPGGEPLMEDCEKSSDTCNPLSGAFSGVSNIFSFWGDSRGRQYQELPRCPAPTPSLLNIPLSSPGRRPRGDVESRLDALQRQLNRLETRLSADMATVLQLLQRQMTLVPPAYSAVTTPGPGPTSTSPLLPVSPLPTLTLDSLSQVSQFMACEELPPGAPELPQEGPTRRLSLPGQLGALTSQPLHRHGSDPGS
row,Compound,"hERG current change (%, negative = inhibition) at 1uM [%]"
1,COc1cc2c(cc1OC)C(c1cccc([N+](=O)[O-])c1)NC(=O)C2 (stereo not shown),-4.16
2,C/C(Cc1ccccc1)=N\NC(=O)CNC(=O)Cc1ccc(Cl)cc1,2.93
3,CC(C)CCNC(=O)NC(=O)CSc1nnc(-c2ccccc2Br)o1,1.41
4,CCOC(=O)C1CCCN(C(=S)Nc2ccc(Nc3ccccc3)cc2)C1 (stereo not shown),-4.29
5,CCc1ccc(C(=O)/C=C/NCc2ccc(F)cc2)cc1,3.85
6,C[C@H](N)C(=O)N1CCC(C(=O)N[C@@H](Cc2ccccc2)C(=O)Nc2ccc(F)cc2)CC1,-1.62
7,CN(C(=O)COc1cccc(C#N)c1)C1CCS(=O)(=O)C1 (stereo not shown),4.06
8,CSc1nc(C(=O)N2CCCC(C(=O)c3ccc(Cl)cc3)C2)cs1 (stereo not shown),18.9
9,Cc1cc(-c2ccco2)n(CC(=O)NCCCc2ccccc2)n1,14.3
10,O=C1CCCC(=O)N1c1ccc(F)cc1,10.5
11,CCNC(=S)NNC(=O)Cn1c(=O)c2c(ncn2CCOC)n(Cc2ccccc2)c1=O,8.98
12,O=C(CN1CCC(N2CCCCC2)CC1)N1CCCc2ccccc21.O=C(O)C(=O)O,25.3
13,CSCC(=O)NS(=O)(=O)c1ccc(C)cc1,11.4
14,Cc1ccccc1N1C(=O)C2ON(c3ccccc3)C(c3ccncc3)C2C1=O (stereo not shown),6.28
15,CCS(=O)(=O)N1CCC(C(=O)NCc2ccc(OC)cc2OC)CC1,0.819
16,CCN1CCN(C(=O)C(NS(=O)(=O)c2ccc3nc(C)sc3c2)C(C)C)CC1 (stereo not shown),3.53
17,CCOC(=O)c1nnn(CC(=O)Nc2cc(F)ccc2F)c1C(=O)OCC,5.94
18,O=C(COc1ccc2c(-c3ccccc3)cc(=O)oc2c1)NCC1CCC(C(=O)O)CC1 (stereo not shown),11.5
19,O=C(NCCCn1ccnc1)C1CC(c2ccccc2Cl)=NO1 (stereo not shown),10
20,COc1ccc(/C=C2\SC(=S)N(CC(=O)NC3C=CS(=O)(=O)C3)C2=O)cc1 (stereo not shown),18
21,Br.CN1CCN(C(=O)Cc2ccccc2)CC1,13.9
22,CCCc1nnc(NC(=O)C2CCN(C(=O)C3CC(=O)N(c4ccc(C)cc4)C3)CC2)s1 (stereo not shown),11.2

row,Compound,"hERG current change (%, negative = inhibition) at 1uM [%]"
1,O=C(O)CCC(=O)N1c2ccccc2NC2=C(C(=O)CC(c3ccc(F)cc3)C2)C1c1ccc([N+](=O)[O-])o1 (stereo not shown),16.6
2,CCOc1ncccc1C(=O)OCC(=O)Nc1cc(C)ccc1C,9.63
3,O=C(Nc1ccc2c(c1)OCCO2)c1ccccc1F,6.56
4,NC(=O)c1nsc(C(=O)N(c2ccc(F)cc2)C(C(=O)NCC2CCCO2)c2ccc3ncccc3c2)c1N (stereo not shown),-1.47
5,COc1ccccc1OCc1ccc(C(=O)NC2CCCCC2)o1,6.11
6,CCCCOc1ccc(C(=O)NCC(=O)NCCCn2nc(C)cc2C)cc1,7.22
7,CCOc1cccc(-c2nnc(SCC(=O)Nc3cc(C)ccc3OC)n2N)c1,-3.42
8,N#CC(C#N)=c1ccc2c(c1)N1C(c3ccccc3)=CC(c3ccccc3)C3CCCCC31N=2 (stereo not shown),7.27
9,CC1(C(O)(C#CC[N+]2(C)CCCCC2)c2ccccc2)CCCC1.[I-] (stereo not shown),21.9
10,C=CCOc1cccc(C2/C(=C(/O)c3ccc(F)cc3)C(=O)C(=O)N2CCN2CCOCC2)c1 (stereo not shown),12.9
11,Cc1ccc(NC(=O)CCc2nnc(SCC(=O)Nc3ccccc3C)n2C)cc1Cl,11.7
12,Cc1cc(C(=O)Cn2cnc3ccccc3c2=O)c(C)n1C1CC1,6.06
13,CCn1c(=O)c(C(=O)NCCCc2ccccc2)c(O)c2ccccc21,10.8
14,Nc1nnnn1CC(=O)N/N=C/c1cc([N+](=O)[O-])ccc1Cl,20.8
15,COc1ccccc1-n1c(SCC(N)=O)nc2c(c1=O)SCC2,8.14
16,Cc1nn(-c2ccccc2)c2sc(C(=O)c3c(N)n(C)c(=O)n(C)c3=O)cc12,1.87
17,COc1cc([C@H](Cc2ccccc2)NC(C)=O)oc(=O)c1,2.59
18,COCCNC(=O)CC(c1ccccc1)c1ccccc1,5.83
19,COc1ccc(CNC(=O)CCS(=O)(=O)c2ccc3c(c2)NC(=O)CS3)cc1,13.6
20,N#C/C(=C(/O)CSc1ccccc1C(=O)O)c1nc2ccccc2s1,11.7
21,CCOC(=O)N1CCN(S(=O)(=O)c2ccc(C(=O)Nc3nnc(CSC)o3)cc2)CC1,-4.18
22,O=C(NCc1ccncc1)C(=O)Nc1nccs1,18.8

row,Compound,"hERG current change (%, negative = inhibition) at 1uM [%]"
1,CC(C)Cn1c(N)cc(=O)n(C)c1=O,17
2,O=C(Nc1nc(COc2ccccc2)cs1)c1ccccc1F,11.9
3,COC(=O)c1ccc(/C=N/Nc2nc(C)c(C)s2)cc1,13.3
4,COc1ccc(C(CNC(=O)C2CC(=O)N(Cc3ccccc3)C2)N2CCCC2)cc1 (stereo not shown),7.46
5,COc1nc(-c2ccccc2)c2cc(Br)ccc2n1,5.04
6,Cl.O=C(C(c1ccccc1)N1CCOCC1)N1CCOCC1 (stereo not shown),-5.9
7,Cc1nc(CCNC(=O)c2cc(COc3ccc(F)cc3Cl)on2)sc1C,6.73
8,COc1cccc(OC)c1OCCN1CCN(C(c2ccccc2)c2ccccc2)CC1,-5.79
9,COc1cccc(NC(=O)C(C)Oc2ccccc2)c1 (stereo not shown),7.93
10,COc1cc(S(=O)(=O)NCCN2CCOCC2)c(OC)cc1Cl,4.64
11,CCOC(=O)C(Cc1ccccc1)NC(=O)CNC(C)=O (stereo not shown) (Ac-Gly-[ξF]-OEt),-11.5
12,Cn1cnnc1SCC(=O)Nc1ccccc1,8.15
13,NNc1nc(-c2ccccc2)c2cc(Br)ccc2n1,12.7
14,CC(=O)c1ccc(-c2cccs2)s1,6.1
15,O=c1cc(C(F)(F)F)nc(-c2ccccc2OC(F)(F)F)[nH]1,6.78
16,COc1ccc(CCn2c(SCC(=O)Nc3cc(C)on3)nc3ccsc3c2=O)cc1OC,12.7
17,Cn1nccc1C(=O)Oc1ccc(/C=N/NC(=O)c2ccccc2O)cc1,17.1
18,C=C1[C@@H](OC(C)=O)CC[C@]2(C)[C@@H]1C[C@@H]1C[C@H](OC(C)=O)C(C)=C([C@@H](OC(C)=O)[C@@H]2OC(C)=O)C1(C)C,6.94
19,Cc1nn(C)c(Cl)c1CN1CCN(C2CCCCC2)C(CCO)C1 (stereo not shown),-0.475
20,COc1ccc(-n2cc(-c3ccccc3)c3c(NCCCN4CCOCC4)ncnc32)cc1,4.12
21,COc1ccc2c(c1)CCc1c(C(=O)Nc3ccc(OC)c(OC)c3)noc1-2,8.64
22,Cc1cc(C)c(NC(=O)CS(=O)CC(=O)Nc2ccc(F)cc2F)c(C)c1 (stereo not shown),15.4

row,Compound,"hERG current change (%, negative = inhibition) at 1uM [%]"
1,CC(C)=C1C2C=CC1C(C(=O)Nc1cccc(C)c1)C2C(=O)O (stereo not shown),7.5
2,O=C(N/N=C/c1cccc(OC(=O)c2ccc([N+](=O)[O-])cc2)c1)c1cccnc1,14.1
3,c1ccc(C2=Nn3c(nnc3-c3ccco3)SC2)cc1,2.41
4,COc1ccc(NC(=O)C(=O)NNC(=O)COc2ccc(Cl)cc2)c(OC)c1,-4.03
5,O=C(CN(Cc1ccco1)C(=O)Cn1nnc(-c2cccs2)n1)NCC1CCCO1 (stereo not shown),12.7
6,COc1ccc(CNC(=O)c2cc(C(=O)C3CC3)c[nH]2)cc1,-2.9
7,Cc1cc(/C=N/NC(=O)C(=O)N2CCCC2)c(C)n1-c1cccc(Br)c1,12.6
8,COc1ccc(NC(=O)COC(=O)CCCOc2ccc(Cl)cc2Cl)cc1,7.33
9,NS(=O)(=O)c1ccc(CCNC(=O)CCCn2c(=O)[nH]c3ccc(Br)cc3c2=O)cc1,11.6
10,CC(C)C(=O)NC(c1cccs1)c1cc([N+](=O)[O-])c2cccnc2c1O (stereo not shown),12.1
11,Cc1noc(C)c1CSCC(=O)Nc1cc(C(F)(F)F)ccc1N1CCCCC1,-7.13
12,COc1ccc(C(=O)NC2CCN(S(=O)(=O)Cc3ccccc3)CC2)c(OC)c1,2.24
13,C/C(Cn1cnc([N+](=O)[O-])n1)=N\NC(=O)c1ccccc1O,1.89
14,CCCCNC(=O)Nc1nc2ccc(CC)cc2s1,15.1
15,O=C(NCCO)c1nc(NCCO)c2ccccc2n1,8.52
16,Cc1cc(C)n(-c2nc3ccccc3[nH]c2=O)n1,17.5
17,Cc1ccc(NC(=O)C(=O)NNC(=O)c2cccs2)cc1,10.9
18,Cc1ccc(N(C(=O)CCC(=O)Nc2cc(C)on2)C(C(=O)NC2CCCC2)c2ccccc2)cc1 (stereo not shown),11.1
19,CCCCCC(=O)NN=C1CCN(Cc2ccccc2)CC1,4.09
20,C=CCn1c2ccccc2c2nnc(SCCN3CCCCC3)nc21,-13.2
21,CCC1C2Cn3c(nc4ccccc43)C1N(C)O2 (stereo not shown),-5.38
22,O=C(O)/C=C/C(=O)Nc1ccc2c(c1)C(=O)c1ccccc1C2=O,10.2
